Data on 18 molecules can be found in the supplement of paper PMC10369915.

B1: ACTL6A_Y69 (peptide)
chain: GGPTYYIDTNA
B2: ACTB_Y198_R196H (peptide)
chain: LTEHGYSFTTT
B3: ACTA1_Y93_L96P (peptide)
chain: WHHTFYNEPRV
B4: ADA_Y290 (peptide)
chain: NDQANYSLNTD
B5: ACTN4_Y265_S262F_YF (peptide)
chain: FVFSFYHAFSG
B6: ACTA2_Y145_R149C (peptide)
chain: AVLSLYASGCT
B7: ACTN2_Y599 (peptide)
chain: SSSNPYSTVTM
B8: ACTC1_Y168_Y168C (peptide)
chain: HNVPICEGYAL
B9: ACTC1_Y171_Y168C (peptide)
chain: PICEGYALPHA
B10: ACTN4_Y260 (peptide)
chain: KAIMTYVSSFY
B11: ACVRL1_Y375_R374W (peptide)
chain: VGTKWYMAPEV
B12: ACTA1_Y71_E74K (peptide)
chain: ILTLKYPIKHG
B13: ADA_Y84_K80R (peptide)
chain: IRRIAYEFVEM
B14: ACTA2_Y200_T196S (peptide)
chain: LSERGYSFVTT
B15: ACVRL1_Y421_I417F_YF (peptide)
chain: GFVEDYRPPFF
B16: ACVRL1_Y421_F425V (peptide)
chain: GIVEDYRPPVY
B17: ACTB_Y188_R183W (peptide)
chain: WDLTDYLMKIL
B18: ACVRL1_Y421 (peptide)
chain: GIVEDYRPPFY

Some of the results follow. Rule as the data show it: active = 3.2 or more and inactive = the rest. The signal is at background level for most entries.
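Also: displayed peptides selected on beads carrying the immobilized SH2 domain, with library peptides lacking any tyrosine serving as negative controls.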

The first test has as its target SHP2 C-SH2 domain E139D. In words: enrichment score (SH2-bound / input frequency) (ratio); bacterial display of known human phosphotyrosine sites (pTyr-Var adds point mutants) read by sequencing; higher = stronger binding; tyrosines were phosphorylated by kinases first. The following applies: peptide library: pTyr-Var.
For B1, the enrichment score was inactive: 0.834.
For the molecule B2, the enrichment score was inactive: 1.16.
For B3, the enrichment score is inactive: 1.91.
For the molecule B4, the enrichment score is inactive: 0.639.
The same measure, in the same setting: with B5 the figure was inactive: 2.15; with B6, inactive: 0.798; with B7, inactive: 0.885.
Still for that read-out and setting: the figure for B8 is inactive: 0.816.
Regarding B9, the enrichment score is inactive: 0.949.
In the case of B10, the enrichment score is inactive: 0.826.
As to B11, the enrichment score was inactive: 1.34.
Regarding B12, the enrichment score was inactive: 2.34.
In the case of B13, the enrichment score is inactive: 1.07.
On the same count and under the same terms, with B14 the figure was inactive: 1.18; with B15, inactive: 0.846; with B16, inactive: 0.586.
On to B17, for which the enrichment score was active: 4.55.
As to B18, the enrichment score is inactive: 0.865.

A further test has as its target SHP2 C-SH2 domain wild-type. The description is as above. The following applies: peptide library: pTyr-Var.
As for B1, the enrichment score was inactive: 0.791.
With B2, the enrichment score was inactive: 1.09.
In the case of B3, the enrichment score was inactive: 1.35.
Turning to B4, the enrichment score was inactive: 0.46.
As for B5, the enrichment score is inactive: 2.81.
On the same count and under the same terms, the figure for B6 is inactive: 1.
In the case of B7, the enrichment score is inactive: 2.38.
Same read-out and setting: the figure for B8 is inactive: 1.19; for B9 it is inactive: 0.741.
B10: the enrichment score is inactive: 0.736.
B11: the enrichment score is inactive: 0.941.
On the same count and under the same terms, with B12 the figure was inactive: 1.94.
For the molecule B13, the enrichment score was inactive: 0.701.
With B14, the enrichment score is inactive: 2.53.
Take B15: the enrichment score is inactive: 0.84.
For B16, the enrichment score is inactive: 0.813.
B17: the enrichment score is active: 3.77.
On the same count and under the same terms, the figure for B18 is inactive: 0.743.

The target of another test is SHP2 N-SH2 domain L43F. The description is as above. Conditions: peptide library: pTyr-Var.
As to B1, the enrichment score is inactive: 0.778.
On to B2, for which the enrichment score is inactive: 1.13.
With B3, the enrichment score was inactive: 1.42.
For the molecule B4, the enrichment score was inactive: 0.533.
The same measure, in the same setting: the figure for B5 is inactive: 2.47.
In the case of B6, the enrichment score was inactive: 0.88.
Consider B7, for which the enrichment score was inactive: 0.548.
Turning to B8, the enrichment score was inactive: 0.897.
As to B9, the enrichment score is inactive: 0.782.
Turning to B10, the enrichment score is inactive: 0.717.
For B11, the enrichment score was inactive: 1.16.
B12: the enrichment score was inactive: 2.18.
The same measure, in the same setting: the figure for B13 is inactive: 0.683.
With B14, the enrichment score is inactive: 0.891.
As for B15, the enrichment score is inactive: 1.17.
The same measure, in the same setting: with B16 the figure was inactive: 0.813; with B17, active: 3.67.
For B18, the enrichment score is inactive: 0.749.

The target of a further test is SHP2 N-SH2 domain T42A. The description is as above. The following applies: peptide library: pTyr-Var.
Consider B1, for which the enrichment score was inactive: 0.942.
B2: the enrichment score is inactive: 0.986.
Regarding B3, the enrichment score was inactive: 1.31.
B4: the enrichment score is inactive: 0.449.
Take B5: the enrichment score is inactive: 2.49.
With B6, the enrichment score is inactive: 0.842.
The same measure, in the same setting: the figure for B7 is inactive: 0.749; for B8 it is inactive: 0.755; for B9 it is inactive: 0.737.
Same read-out and setting: the figure for B10 is inactive: 0.582; for B11 it is inactive: 1.05.
Take B12: the enrichment score is inactive: 2.17.
In the case of B13, the enrichment score is inactive: 0.882.
For the molecule B14, the enrichment score was inactive: 1.81.
Consider B15, for which the enrichment score is inactive: 1.02.
For the molecule B16, the enrichment score is inactive: 0.593.
For the molecule B17, the enrichment score was active: 4.15.
For the molecule B18, the enrichment score was inactive: 0.715.

A further test deals with SHP2 N-SH2 domain T52S. Described as above. The following applies: peptide library: pTyr-Var.
For the molecule B1, the enrichment score was inactive: 0.661.
B2: the enrichment score was inactive: 0.787.
For the molecule B3, the enrichment score is inactive: 1.54.
With B4, the enrichment score was inactive: 0.457.
With B5, the enrichment score is inactive: 2.36.
Regarding B6, the enrichment score is inactive: 0.868.
As to B7, the enrichment score is inactive: 0.508.
Still for that read-out and setting: with B8 the figure was inactive: 0.594; with B9, inactive: 0.784.
Consider B10, for which the enrichment score was inactive: 0.797.
Take B11: the enrichment score was inactive: 1.32.
Consider B12, for which the enrichment score is inactive: 2.3.
Consider B13, for which the enrichment score was inactive: 0.757.
Consider B14, for which the enrichment score is inactive: 0.943.
B15: the enrichment score was inactive: 1.24.
For B16, the enrichment score is inactive: 0.991.
For the molecule B17, the enrichment score was active: 3.42.
Same read-out and setting: the figure for B18 is inactive: 0.716.

Another test deals with SHP2 N-SH2 domain wild-type. Described as above. The following applies: peptide library: pTyr-Var.
B1: the enrichment score is inactive: 0.936.
In the case of B2, the enrichment score is inactive: 0.945.
For the molecule B3, the enrichment score was inactive: 1.59.
With B4, the enrichment score is inactive: 0.556.
With B5, the enrichment score was inactive: 2.67.
On the same count and under the same terms, the figure for B6 is inactive: 1.11.
As to B7, the enrichment score was inactive: 0.629.
In the case of B8, the enrichment score is inactive: 0.755.
The same measure, in the same setting: the figure for B9 is inactive: 0.796.
As for B10, the enrichment score was inactive: 0.845.
Take B11: the enrichment score is inactive: 1.25.
B12: the enrichment score was inactive: 2.22.
With B13, the enrichment score was inactive: 1.02.
Regarding B14, the enrichment score is inactive: 0.835.
As to B15, the enrichment score is inactive: 1.32.
For the molecule B16, the enrichment score is inactive: 0.973.
The same measure, in the same setting: with B17 the figure was active: 3.99.
B18: the enrichment score is inactive: 0.818.
